Here are results for 58 compounds from ChEMBL document CHEMBL1201862, “PubChem BioAssay data set” (2004).

Molecules are shown by their SMILES.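 Each compound was tested at five concentrations against cells in 96-well plates for 48 hours. GI50 marks 50% less growth.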 The source made the active and inactive calls. No stated cut-off is given here; in the data, active = GI50 up to about 1.1 µM and inactive = higher. A value given as a limit tells only on which side of the number the result lay.

The test has as its system NCI-H322M. As to the kind of experiment: NCI tumour cell line growth inhibition, 48 h.
Consider `CCOc1cccc(-c2cc(O)c3cc4c(cc3n2)OCO4)c1`, for which the GI50 is active: 0.603 µM.

On to `CC(C)N1CCN(c2ccncc2S(=O)(=O)N2CCCCC2)CC1`, for which the GI50 is inactive: > 100 µM.

In the case of `Cc1cc(C)nc(NC(=O)COc2ccc(Cl)cc2)c1`, the GI50 is inactive: > 100 µM.

On to `CCOc1ccc(-n2c(=O)c3nn4c(=O)n(-c5ccc(OCC)cc5)c(=O)c4nn3c2=O)cc1`, for which the GI50 is inactive: > 100 µM.

`O=C1C2=Cc3ccccc3OC2(O)Oc2ccccc21` (stereo not drawn): the GI50 was inactive: > 100 µM.

Turning to `NC(=O)NC12CC3CC(CC(F)(C3)C1)C2`, the GI50 was inactive: > 100 µM.

`CCN(CC)CCCC(C)Nc1cc(/C=C/c2ccc(Cl)cc2)nc2cc(N(C)C)ccc12` (stereo not drawn): the GI50 is inactive: 1.83 µM.

For the compound `CC12CC3c4ccccc4CN1C3(c1ccccc1)OC2=O` (stereo not drawn), the GI50 is inactive: > 100 µM.

For the compound `S=C(NCc1ccccc1)c1nc[nH]c1C(=S)NCc1ccccc1`, the GI50 is inactive: 6.87 µM.

As for `CCO/C([O-])=C(\C(=O)c1ccccc1)[n+]1c(C)sc2ccccc21`, the GI50 is inactive: 29.2 µM.

With `O=S(=O)(O)c1cc(S(=O)(=O)O)c2c(/N=N/c3ccc(/N=N/c4ccccc4)cc3)c(O)ccc2c1`, the GI50 was inactive: > 100 µM.

As to `Cc1c(NC(=S)Nc2ccc([N+](=O)[O-])cc2)c(=O)n(-c2ccccc2)n1C`, the GI50 is inactive: > 100 µM.

For the compound `O=C(CSc1nnc(-c2ccccn2)s1)N/N=C/c1ccc([N+](=O)[O-])cc1`, the GI50 is inactive: > 100 µM.

Regarding `CC1(C(=O)O)CCC[C@@]2(C)C1CC[C@@]1(C)c3cocc3CCC21` (stereo partly drawn), the GI50 is inactive: > 100 µM.

As for `C=CC1(CCC(Br)C(C)(C)Cl)CO1` (stereo not drawn), the GI50 was inactive: > 10 µM.

Take `OC(Cc1cc(CC(O)(C(F)(F)F)C(F)(F)F)nc(CC(O)(C(F)(F)F)C(F)(F)F)c1)(C(F)(F)F)C(F)(F)F`: the GI50 was inactive: 2.81 µM.

Consider `OCC(O)C(OC1OC(CO)C(O)C(O)C1O)c1nn(-c2ccccc2)c2nc3cc(Cl)c(Cl)cc3cc12` (stereo not drawn), for which the GI50 is inactive: > 100 µM.

For `O=C1CCC(=O)C(C(=O)CCC(=O)Nc2cccc(Cl)c2)C1` (stereo not drawn), the GI50 was inactive: > 100 µM.

Take `CN(C)c1ccc(/C=N/c2ccc(-c3nc4ccccc4s3)cc2)cc1`: the GI50 was inactive: 41.8 µM.

`CCc1cc(Cc2cc(Cl)c(NC(=O)C(=O)C3NC(=O)NC3=O)c(CC)c2)cc(Cl)c1NC(=O)C(=O)C1NC(=O)NC1=O` (stereo not drawn): the GI50 is inactive: 36.7 µM.

In the case of `CNC(=S)N/N=C/c1ccc([N+](=O)[O-])s1`, the GI50 is inactive: > 10 µM.

For the compound `Cc1coc2c1C(OC(=O)C(C)C)C1(C)C(C)CCC(O)C1C2=O` (stereo not drawn), the GI50 is inactive: > 100 µM.

`OC(CC(CC(O)(C(F)(F)F)C(F)(F)F)=NN=C(CC(O)(C(F)(F)F)C(F)(F)F)CC(O)(C(F)(F)F)C(F)(F)F)(C(F)(F)F)C(F)(F)F`: the GI50 was inactive: > 10 µM.

With `O=[N+]([O-])c1cc(-c2nnc(S)[nH]2)ccc1O`, the GI50 is inactive: > 100 µM.

As to `Nc1nc(Nc2ccccc2)sc1C(=O)c1ccc(Cl)cc1`, the GI50 is inactive: 2.43 µM.

On to `COc1ccc(/N=N/C(=N/NC(=O)c2cc(Cl)ccc2C(=O)c2ccccc2)c2ccc(N(CCC#N)CCC#N)cc2C)cc1`, for which the GI50 is inactive: 17.5 µM.

For the compound `CCOC1NC(=O)Oc2ccccc21` (stereo not drawn), the GI50 is inactive: > 100 µM.

In the case of `COc1ccc2[nH]c(C(=O)N3CC(CCl)c4ccc([N+](=O)[O-])cc43)cc2c1` (stereo not drawn), the GI50 is inactive: > 100 µM.

As to `Cc1cc(C23OC4COC(C)(C)OC4C2OC(C)(C)O3)nc2ccccc12` (stereo not drawn), the GI50 was inactive: > 100 µM.

With `CC(=O)/C=C1\Nc2ccccc2N\C1=C/C(C)=O`, the GI50 is inactive: 29.2 µM.

For `COc1cc(CC2CC(c3ccc4c(c3)OCO4)OC2=O)cc(OC)c1OC` (stereo not drawn), the GI50 is inactive: > 100 µM.

Consider `COc1cccc(NC(=O)CSc2nnc(Cc3ccccc3)o2)c1`, for which the GI50 is inactive: > 100 µM.

Consider `NNC(=O)CSc1nnc(CCCCCCCCc2nnc(SCC(=O)NN)o2)o1`, for which the GI50 was inactive: > 100 µM.

Take `CC(=O)CC(=O)CCC(=O)Nc1cccc(C(F)(F)F)c1`: the GI50 was inactive: > 100 µM.

Take `FC(F)(F)C1=NC(=NNc2nnc(-c3ccccc3)c(-c3ccccc3)n2)N=C(C(F)(F)F)C1`: the GI50 was inactive: 15.8 µM.

Take `C=CCSC1=N/C(=C\c2ccco2)C(=O)N1CC=C`: the GI50 was inactive: > 100 µM.

Consider `CC(=O)c1c(O)ccc2c1CC(CC=O)O2` (stereo not drawn), for which the GI50 is inactive: > 100 µM.

Regarding `Cc1nc2ccccc2c(=O)n1/N=C/c1ccc(N(C)C)cc1`, the GI50 was inactive: > 100 µM.

For the compound `Oc1cc(O)c(Oc2cccc(O)c2O)c(O)c1`, the GI50 was inactive: > 100 µM.

In the case of `O=C(/C=C1\N=C(c2ccccc2)N(c2nc3c(Cl)cc(Cl)cc3s2)C1=O)/C=C/c1ccccc1`, the GI50 is inactive: > 100 µM.

`C[C@]12CCC3c4ccc(OC(=O)c5ccccc5)cc4CC[C@H]3C1CC[C@@H]2OC(=O)C12OC1CCC2=O` (stereo partly drawn): the GI50 is inactive: 6.19 µM.

On to `COC(=O)C(C(=O)C(=O)Nc1cccc(OC)c1)c1cnc2ccccc2n1` (stereo not drawn), for which the GI50 was inactive: > 100 µM.

As for `O=C(CCn1[nH]c(=O)c(Cl)c(Cl)c1=O)NO`, the GI50 was inactive: > 100 µM.

In the case of `COc1ccc(CN2C(=O)[C@@H]3Cc4c(OC)c(C)c(OC)c(OC)c4[C@H](/C2=C\c2cc(OC)c(OC)c(C)c2OC)N3C(=O)OC(C)C)cc1`, the GI50 was inactive: > 100 µM.

On to `CN(C)CCc1ccnc2nc(-c3ccc4ccccc4c3)cn12`, for which the GI50 is inactive: > 100 µM.

For the compound `COC1C2c3ccccc3C(C#N)(Cc3ccc4c(c32)OCO4)N1C(=O)c1ccccc1` (stereo not drawn), the GI50 is inactive: > 100 µM.

`O=C1NC(N2CCCCC2)=N/C1=C\c1ccccc1`: the GI50 is inactive: > 100 µM.

Turning to `CC1=CC(=O)C(C(O)(C(F)(F)F)C(F)(F)F)C(C)(C)C1` (stereo not drawn), the GI50 was inactive: > 10 µM.

Take `N#C/N=C(/N)c1sc2nc3c(c(-c4ccc(Br)cc4)c2c1N)CCCC3`: the GI50 is inactive: 20.6 µM.

With `COc1ccc(Cn2nc(OCc3ccccn3)c3cc([N+](=O)[O-])ccc32)cc1`, the GI50 was inactive: > 100 µM.

On to `CC1=NCCc2cc3[nH]c4ccccc4c3cc21`, for which the GI50 is inactive: 23.2 µM.

For `N#Cc1cc2c(cc1Cl)Sc1nccn1S2(=O)=O`, the GI50 is inactive: 3.17 µM.

For the compound `CC(=O)C1=C(O)C(N)C2Cc3c(c(O)c4c(O)c(C)ccc4c3C)C(=O)C2(O)C1=O` (stereo not drawn), the GI50 is inactive: 2.01 µM.

Regarding `COc1cccc(-n2c(N)c(-c3nc4cc(C(F)(F)F)ccc4s3)c3ccc([N+](=O)[O-])cc3c2=O)c1`, the GI50 is inactive: > 100 µM.

Regarding `C=C1NC(=O)C(CC(C(=O)C(=O)Nc2c(C)cccc2C(C)(C)C)C(=O)c2ccc3ccccc3c2)C(=O)N1` (stereo not drawn), the GI50 was inactive: > 100 µM.

With `COC(=O)[C@@]12C(=O)C=CC(=O)[C@@H]1C1C(=CC2COC(C)=O)O[C@@H]2OC3(CCCCC3)O[C@H]12` (stereo partly drawn), the GI50 was inactive: 17.7 µM.

Turning to `CC1=CCCC2C(C=O)(C1)CC(C)C2(CO)CC/C(=C/CO)CO` (stereo not drawn), the GI50 is inactive: > 100 µM.

Turning to `COc1ccc(/C(=C\c2cc(OC)c(OC)c(OC)c2)C(=O)O)cc1`, the GI50 is inactive: 42.4 µM.
